Assay results: PubChem BioAssay (NCATS)
Inconclusive means that the source gave no clear call. Such entries were picked first, then a sample of the others. Calls of active or inactive are those of the source. Calls come from the whole dose curve; as a rule, active = well fitted curve in either direction with a large enough effect (not every such curve was filed as active); inconclusive = small, poorly fitted or top-dose-only effect, or another doubt; inactive = flat fitted curve, though single readings scatter.

Test: NFAT Signaling Pathway (AID 444);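 note: carbachol stimulus at about its EC50 of 1 µM final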
Details: Jurkat NFAT-bla M1, carbachol, beta-lactamase ratio, 5 h; at 17.2 µM (top of the series) unless noted
How it was run: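 Read-out: CCF4 FRET ratio (460 nm/530 nm) after 1 h RT dye loading, used for %activity and AC50 from titration series. Cells: Jurkat NFAT-β-lactamase/M1 line, treated with compound plus 1 uM carbachol for 5 h, 37 °C.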
% is set by controls: 0 for no effect and ±100 for the full control effect.

Activity change, negative = inhibition, inactive:
c1ccc(B2OC[C@@H]3OB(c4ccccc4)O[C@H]([C@@H]4COB(c5ccccc5)O4)[C@@H]3O2)cc1 19.9% [at 7.69 µM]
COC(=O)CNC(=O)c1c(C)cc(=O)oc1C 13.6%
O=[N+]([O-])c1ccc2ncccc2c1CCc1c([N+](=O)[O-])ccc2ncccc12 17.8% [at 7.69 µM]
CC(=O)c1c(N)nc2n(c1=O)CCCCC2 -9.74%
O=C(c1cnccn1)N1CCC[C@@]2(CCN(c3ccccc3)C2)C1 -3.48% [at 7.69 µM]
CC1(C)O[C@H]2[C@@H](c3[nH]nc4c(=O)[nH]c(=O)[nH]c34)OC[C@H]2O1 -14.8% [at 7.69 µM]
Cc1nc(-c2coc3cc(OCC(=O)O)ccc3c2=O)cs1 -2.11%
COc1cccc(OC)c1C(=O)N1CCN(S(=O)(=O)c2ccc(C)cc2)CC1 -1.17%
COc1cc(C)nc(N(C)S(=O)(=O)c2ccccc2Cl)n1 -19.3%
CC(C)=CCC(C)(C)CNC(=O)NC1CCCCC1 19%
CCCCCSc1nc(O)cc(=O)[nH]1 11.4%
CCCCOC(=O)CCc1nc2ccccc2[nH]1 -0.459%
CN1[C@@H](c2ccccc2)CC(=NO)C[C@H]1c1ccccc1 -20.1% [at 7.69 µM]
CCOC(=O)C1=C(CSc2nc(C)cc(C)c2C#N)OC(N)=C(C#N)C1c1cccs1 (stereo not given) -27.2%
COc1cccc(-c2nnc3sc(-c4ccco4)nn23)c1 7.27%
CCOc1ccc(C2/C(=C(/O)c3ccc(OC)cc3)C(=O)C(=O)N2c2cc(C)on2)cc1OC (stereo not given) -0.187%
COc1ccc(-n2c(=O)c(C)nc3cnc(Oc4ccccc4)nc32)cc1 4.01% [at 7.69 µM]
O=C(Nc1ccccc1)N1CCCC2(CCN(C(=O)c3ccco3)CC2)C1 -7.1% [at 7.69 µM]
CCCC1CC(=O)OC1(C)C(=O)CSc1n[nH]c(-c2ccccc2)n1 (stereo not given) 8.59%
CCCCn1c(-c2ccc(Cl)cc2)nc2c(=O)n(C)c(=O)[nH]c21 -14.1%
O=C(Nc1cccc(F)c1)N1CC2(CCN(C(=O)c3csnn3)CC2)C1 16.8% [at 7.69 µM]
COc1ccc(C(=O)N2CCC[C@@]3(CCN(Cc4ccncc4)C3)C2)cc1 4.96% [at 7.69 µM]
Cc1c(C)[n+](=O)c2c(n1[O-])CCC2 -5.07%
O=c1cc(CF)[nH]c(=S)[nH]1 5.97% [at 7.69 µM]

Activity change, negative = inhibition, inconclusive:
C[C@@H]1C[C@H](OC(=O)c2ccccc2O)CC(C)(C)C1 -61.4% [inhibitor]
O=C(c1ccncc1)N1CCC2(CC1)CCN(c1ccccn1)CC2 -48.1% [inhibitor] [at 7.69 µM]
CC1(C)Cc2c(C#N)c(OCC(=O)c3ccccc3)nc(-c3ccoc3)c2CO1 268% [activator]
C/C(=N\O)c1ccc2[nH]ccc2c1 4.13% [inhibitor]
Cc1cccc(N(Cc2cc3ccccc3[nH]c2=O)C(=O)c2ccco2)c1C 46.1% [activator]
Cn1cccc1C(=O)N1CCC2(CCCN(Cc3ccc(C#N)cc3)C2)CC1 -67.6% [inhibitor] [at 7.69 µM]
CN(C)C[C@H]1CCC2=C(C1=O)C(c1ccc(Cl)c(Cl)c1)C1=C(CC[C@H](CN(C)C)C1=O)O2 -47.3% [inhibitor] [at 7.69 µM]
CCc1nc2sc3c(c2c(=O)o1)CCCC3 -52% [inhibitor]
CCCCc1nc(NCC2CCCO2)c(C#N)c2c1COC(C)(C)C2 (stereo not given) 72.4% [activator]
Cc1ccc2c(c1)[C@@H]1CN(C)CC[C@@H]1N2S(=O)(=O)c1ccc(F)cc1 -36.9% [inhibitor]
CCC(NC(C)C)C(O)c1ccc(O)c2[nH]c(=O)ccc12 (stereo not given) -35.2% [inhibitor]
CCc1nnc(NC(=O)CSc2nc(C)c3c(c2C#N)CCCC3)s1 -31.8% [inhibitor]
CC1(C)Cc2nc(NCCCO)c(C#N)cc2CO1 41.8% [activator]
CCCCc1c(O)nc(SCCN(C)C)n(-c2ccccc2)c1=O -37.4% [inhibitor]
COc1ccc(NC(=O)N2CCC3(CC2)CCN(S(C)(=O)=O)CC3)cc1 10.7% [activator] [at 7.69 µM]

Activity change, negative = inhibition, active:
CN(C)CCCOC(=O)C1c2ccccc2Oc2ccccc21 -63.3%
